Measurements published in the RNAGym collection of RNA variant scans (doi:10.1093/nar/gkz1192).
The source gives no read counts; variants with many changes may rest on few reads.

B1: CPEB3 Ribozyme (parent)
chain: UAACAGGGGGCCACAGCAGAAGCGUUCACGUCGCAGCCCCUGUCAGAUUCUGGUGAAUCUGCGAAUUCUGCUGUAUAUCUC

Variants of: B1
Assay: self-cleavage, relative activity (ratio to wild type); higher = more cleavage; in vitro, sequencing
Procedure, shortened: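 CPEB3 self-cleaving ribozyme mutant libraries were made by rounds of error-prone PCR, barcoded, and transcribed in vitro with T7 RNA polymerase for 5 hours at 37°C. Cleavage occurred during transcription and a 15 min DNase I step before EDTA stop. RNAs were reverse transcribed with template switching and Illumina-sequenced, with DNA sequencing mapping barcodes to variants. Relative activity is the variant's cleaved/total read fraction divided by wild type's (minimum 5 reads), averaged across three batches.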
Variant A18U A35G C38A U48A U54A C71A has a self-cleavage of 0.05.
In the case of A18U A35G G42A U58C, the self-cleavage is reported as 0.14.
A18U A35G U41A gave a self-cleavage of 0.23.
A18U A35G U41C A45C U58A U76C showed a self-cleavage of 0.07.
Variant A18U A35G U67A U80A has a self-cleavage of 0.89.
With A18U A35U U78C the self-cleavage was 0.15.
With A18U A45G A56G U72C the self-cleavage was 0.44.
A18U A45U U66C U69C gave a self-cleavage of 0.1.
For A18U A45U U69C U80C, the self-cleavage was 0.14.
A18U A47G U66C U80C gave a self-cleavage of 0.32.
Variant A18U A56G U72A has a self-cleavage of 0.16.
With A18U A56U U66C the self-cleavage was 0.25.
For A18U A57G U58A A65G G73A, the self-cleavage was 0.18.
With A18U A57G U66A U69A the self-cleavage was 0.32.
Work on A18U A64G U66A U67C yielded a self-cleavage of 0.2.
Work on A18U A64U U74A yielded a self-cleavage of 0.22.
Variant A18U A65U C81A has a self-cleavage of 0.42.
For A18U A65U U69A, the self-cleavage was 0.11.
Work on A18U A75U U78A yielded a self-cleavage of 0.38.
A18U C23A A45U showed a self-cleavage of 0.28.
Work on A18U C23A A45U U54C U80A yielded a self-cleavage of 0.23.
A18U C23U C29G G52C A56G gave a self-cleavage of 0.08.
In the case of A18U C23U U31A U74C, the self-cleavage is reported as 0.05.
Work on A18U C27U U54C A56G A64G yielded a self-cleavage of 0.06.
Variant A18U C29G C59A has a self-cleavage of 0.18.
A18U C29U A47G U51A A65U U67C gave a self-cleavage of 0.13.
For A18U C29U A64G, the self-cleavage was 0.27.
For A18U C29U U41C C62U A65G U72G, the self-cleavage was 0.07.
With A18U C32A U48C U78A the self-cleavage was 0.03.
In the case of A18U C32U A47G, the self-cleavage is reported as 0.15.
Work on A18U C32U C34A U41A A77G yielded a self-cleavage of 0.05.
A18U C34G U49A gave a self-cleavage of 0.14.
A18U C34U U41A A45U U66C U69A A77U gave a self-cleavage of 0.03.
With A18U C34U U51A the self-cleavage was 0.1.
In the case of A18U C37A U49C U72C U80A, the self-cleavage is reported as 0.05.
A18U C38G A56C G70A gave a self-cleavage of 0.07.
Variant A18U C38U U41C U72A has a self-cleavage of 0.19.
A18U C38U U60A G73A U80G showed a self-cleavage of 0.07.
For A18U C50A A56G C59U, the self-cleavage was 0.14.
With A18U G19U A28G the self-cleavage was 0.13.
With A18U G22U U58A U78C the self-cleavage was 0.15.
With A18U G24C U49C the self-cleavage was 0.16.
For A18U G30A U67C U69C, the self-cleavage was 0.13.
A18U G33A A35U U60C showed a self-cleavage of 0.08.
A18U G33A C37U U48C U72A U76A gave a self-cleavage of 0.12.
For A18U G52A A56U, the self-cleavage was 0.22.
Variant A18U G61A U72A has a self-cleavage of 0.26.
Variant A18U U25A A35U G61A has a self-cleavage of 0.04.
Variant A18U U25A A56G A57G A75G has a self-cleavage of 0.02.
A18U U25A A64G showed a self-cleavage of 0.23.
A18U U25C A35G A45U showed a self-cleavage of 0.09.
Work on A18U U25C A35G U48C U80C yielded a self-cleavage of 0.44.
A18U U25C A45U U49C U76A showed a self-cleavage of 0.03.
A18U U25C C40A C50U gave a self-cleavage of 0.07.
Variant A18U U25C G42A U49A U60C U66C has a self-cleavage of 0.05.
For A18U U25C U41A, the self-cleavage was 0.06.
Work on A18U U25C U43A yielded a self-cleavage of 0.3.
A18U U25C U58C C68G gave a self-cleavage of 0.04.
Variant A18U U25C U60C U78C has a self-cleavage of 0.24.
Variant A18U U25C U67C has a self-cleavage of 0.14.
With A18U U26A A56U U66C U78G the self-cleavage was 0.11.
Work on A18U U26A C32U yielded a self-cleavage of 0.15.
A18U U26A U31A A57G U78C gave a self-cleavage of 0.06.
Work on A18U U26A U43C A64G A75G yielded a self-cleavage of 0.05.
Variant A18U U26C A28U U58A U60C A64C U67C has a self-cleavage of 0.02.
For A18U U26C A35C, the self-cleavage was 0.18.
A18U U26C A35G C37A C71U showed a self-cleavage of 0.14.
In the case of A18U U26C A35G U51C, the self-cleavage is reported as 0.37.
A18U U26C A47G A77U gave a self-cleavage of 0.24.
In the case of A18U U26C A56G U60C A65G, the self-cleavage is reported as 0.1.
For A18U U26C C44A C62G, the self-cleavage was 0.11.
Work on A18U U26C G36A yielded a self-cleavage of 0.18.
A18U U26C G42A U43C U48C U69C gave a self-cleavage of 0.08.
For A18U U26C U43C A56G U58A A65U, the self-cleavage was 0.05.
With A18U U26C U51A C68A U72C the self-cleavage was 0.05.
Work on A18U U26C U51A U67C U72C yielded a self-cleavage of 0.12.
A18U U26C U67A gave a self-cleavage of 0.15.
With A18U U26C U80C the self-cleavage was 0.08.
In the case of A18U U26G U54A U58C U78C, the self-cleavage is reported as 0.01.
For A18U U26G U58C A64G U80C, the self-cleavage was 0.04.
A18U U31A A35U G53U U67A U69A A75U gave a self-cleavage of 0.05.
A18U U31A A57G gave a self-cleavage of 0.44.
Work on A18U U31A C32A A65G yielded a self-cleavage of 0.07.
With A18U U31A C38U A45U U48C A64U the self-cleavage was 0.05.
With A18U U31C A45U A47G A77U the self-cleavage was 0.23.
For A18U U31C A45U A56U, the self-cleavage was 0.06.
With A18U U31C A47G U51C the self-cleavage was 0.14.
For A18U U31C C44A A64G, the self-cleavage was 0.16.
In the case of A18U U31C G42C, the self-cleavage is reported as 0.19.
In the case of A18U U31C U41C A47G C71G, the self-cleavage is reported as 0.12.
Variant A18U U31C U41C A57G has a self-cleavage of 0.14.
Variant A18U U31C U54C has a self-cleavage of 0.16.
In the case of A18U U31C U67C, the self-cleavage is reported as 0.11.
A18U U31G A64G U74C showed a self-cleavage of 0.13.
Work on A18U U41A U54G U60C U72C yielded a self-cleavage of 0.1.
In the case of A18U U41A U69G U78C U80A, the self-cleavage is reported as 0.09.
With A18U U41C U49A C59U the self-cleavage was 0.2.
Variant A18U U43A A45U has a self-cleavage of 0.27.
A18U U43A U67A U72A A75G gave a self-cleavage of 0.26.
Variant A18U U43C A65G U67C U76C has a self-cleavage of 0.18.
Variant A18U U43C U66C U80C has a self-cleavage of 0.13.
In the case of A18U U48A A56C U74C, the self-cleavage is reported as 0.05.
Work on A18U U49A A56G U67C yielded a self-cleavage of 0.1.
Work on A18U U49C U51C U69A yielded a self-cleavage of 0.36.
For A18U U49C U54C, the self-cleavage was 0.13.
Variant A18U U49C U66A U72A has a self-cleavage of 0.09.
In the case of A18U U51C U54C, the self-cleavage is reported as 0.11.
In the case of A18U U51C U58C, the self-cleavage is reported as 0.2.
Work on A18U U51C U67C yielded a self-cleavage of 0.31.
A18U U54A A57G gave a self-cleavage of 0.25.
Work on A18U U54C A56G U58C yielded a self-cleavage of 0.17.
For A18U U54C G73U, the self-cleavage was 0.43.
Variant A18U U54C U60A has a self-cleavage of 0.14.
A18U U54C U76A gave a self-cleavage of 0.51.
Work on A18U U58A U78A yielded a self-cleavage of 0.13.
A18U U58C U66C U80C gave a self-cleavage of 0.19.
Work on A18U U58C U80C yielded a self-cleavage of 0.17.
A18U U58G U69C showed a self-cleavage of 0.13.
For A18U U60C A64G A65G, the self-cleavage was 0.22.
A18U U60C C81A gave a self-cleavage of 0.18.
In the case of A18U U60C U66C, the self-cleavage is reported as 0.31.
Work on A18U U69A G70C yielded a self-cleavage of 0.22.
A18U U74C U78C gave a self-cleavage of 0.81.
For G19A A20C A21C C32U U58C U69A, the self-cleavage was 0.07.
G19A A28G A35G U41C showed a self-cleavage of 0.17.
With G19A A28G A45G U51C U66C U76C A77C the self-cleavage was 0.11.
With G19A A28G U80C the self-cleavage was 0.1.
G19A A35C G73U gave a self-cleavage of 0.08.
G19A A45U A64U gave a self-cleavage of 0.15.
In the case of G19A A45U U48C, the self-cleavage is reported as 0.09.
With G19A C27G U69A the self-cleavage was 0.08.
With G19A C39G A57G U78C the self-cleavage was 0.04.
Variant G19A G33A A57G A65U U66C U80C has a self-cleavage of 0.07.
For G19A G46U C68U, the self-cleavage was 0.37.
With G19A G53C A65G U80C the self-cleavage was 0.11.
For G19A U25C U26G A77G, the self-cleavage was 0.12.
In the case of G19A U26A G36A A45G U54C, the self-cleavage is reported as 0.14.
For G19A U51C U72C, the self-cleavage was 0.27.
For G19C A20G G63A U78C U80C, the self-cleavage was 0.23.
G19C A28U C44U gave a self-cleavage of 0.14.
Work on G19C A28U U43C U51C U60A A64U U74G yielded a self-cleavage of 0.04.
In the case of G19C A56G A57G, the self-cleavage is reported as 0.16.
G19C U25C A56G showed a self-cleavage of 0.07.
G19C U26A C37U showed a self-cleavage of 0.1.
In the case of G19C U31A A35G U41A U72A U80C, the self-cleavage is reported as 0.06.
With G19C U31A U67C the self-cleavage was 0.08.
G19C U43C U49A G52U A65G U69C U72C showed a self-cleavage of 0.1.
G19C U48C U51C U66C U67C showed a self-cleavage of 0.07.
G19C U49C U58A showed a self-cleavage of 0.
G19U A20G C40G U54G gave a self-cleavage of 0.08.
For G19U A20G U26C U51C U72A A77G U80C, the self-cleavage was 0.07.
Variant G19U A21G A45G U69A U80C has a self-cleavage of 0.08.
Work on G19U A21G U26A U69A yielded a self-cleavage of 0.23.
Variant G19U A21U U41C U67C G73A U74C has a self-cleavage of 0.06.
For G19U A28G U41C A45G A65G U78G, the self-cleavage was 0.03.
G19U A35U A47C U48C showed a self-cleavage of 0.13.
With G19U A35U U60C the self-cleavage was 0.11.
With G19U A47G U48C U69A the self-cleavage was 0.19.
In the case of G19U A47G U72C, the self-cleavage is reported as 0.12.
Work on G19U A56U U78C yielded a self-cleavage of 0.17.
Variant G19U A64G U78C has a self-cleavage of 0.17.
In the case of G19U C23U A35G C59U, the self-cleavage is reported as 0.07.
With G19U C23U A56U C68U A77G the self-cleavage was 0.13.
G19U C27U A35C A56U A65G U69A showed a self-cleavage of 0.06.
For G19U C27U A35U, the self-cleavage was 0.15.
In the case of G19U C34U U41A U66C G73U U78C, the self-cleavage is reported as 0.03.
Variant G19U C50A A56U A64G U69C has a self-cleavage of 0.1.
